Measurements: US20200087380A1 (Chugai, published 2020)

T1: hIL6R (human, UniProt P08887 20-357, limits assumed)
T1 construct: Printed as hIL6R
T1 sequence (looked up): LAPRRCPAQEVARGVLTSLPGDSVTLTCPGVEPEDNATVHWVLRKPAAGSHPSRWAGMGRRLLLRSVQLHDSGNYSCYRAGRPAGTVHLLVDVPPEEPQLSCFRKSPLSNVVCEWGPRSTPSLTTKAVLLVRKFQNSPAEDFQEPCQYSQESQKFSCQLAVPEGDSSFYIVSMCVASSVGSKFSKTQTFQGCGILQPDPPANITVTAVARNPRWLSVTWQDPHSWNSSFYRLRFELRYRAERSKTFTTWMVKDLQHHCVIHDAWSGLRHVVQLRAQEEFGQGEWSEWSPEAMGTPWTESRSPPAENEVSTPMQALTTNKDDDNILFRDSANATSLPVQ


Biological target: T1, hIL6R
Assay: SPR (Biacore T100), antibody captured on Protein A/G chip, antigen as analyte, 25 C, 1:1 Langmuir fit

| Binder | Kd | koff | kon |
| --- | --- | --- | --- |
| anti-IL6R antibody with H chain constant region TH13 (K147E, Q175E) and L chain constant region TL16 (T180K, S131K, Q160K) (antibody, human IgG1, kappa, IgG1/kappa; also called TH13/TL16) heavy: QVQLQESGPGLVRPSQTLSLTCTVSGYSITSDHAWSWVRQPPGRGLEWIGYISYSGITTYNPSLKSRVTMLRDTSKNQFSLRLSSVTAADTAVYYCARSLARTTAMDYWGQGSLVTVSS[human IgG1 constant region not shown] light: DIQMTQSPSSLSASVGDRVTITCRASQDISSYLNWYQQKPGKAPKLLIYYTSRLHSGVPSRFSGSGSGTDFTFTISSLQPEDIATYYCQQGNTLPYTFGQGTKVEIKRTVAAPSVFIFPPSDEQLKSGTAKVVCLLNNFYPREAKVQWKVDNALQSGNSKESVTEQDSKDSTYSLSSTLKLSKADYEKHKVYACEVTHQGLSSPVTKSFNRGEC | 2.9 nM | 0.00044 s⁻¹ | 160000 M⁻¹ s⁻¹ |
| anti-IL6R antibody with H chain constant region G1d and L chain constant region k0 (MH0-G1d / ML0-k0) (antibody, human IgG1, kappa, IgG1/kappa; also called G1d/k0; native G1d/k0) heavy: QVQLQESGPGLVRPSQTLSLTCTVSGYSITSDHAWSWVRQPPGRGLEWIGYISYSGITTYNPSLKSRVTMLRDTSKNQFSLRLSSVTAADTAVYYCARSLARTTAMDYWGQGSLVTVSS[human IgG1 constant region not shown] light: DIQMTQSPSSLSASVGDRVTITCRASQDISSYLNWYQQKPGKAPKLLIYYTSRLHSGVPSRFSGSGSGTDFTFTISSLQPEDIATYYCQQGNTLPYTFGQGTKVEIKRTVAAPSVFIFPPSDEQLKSGTASVVCLLNNFYPREAKVQWKVDNALQSGNSQESVTEQDSKDSTYSLSSTLTLSKADYEKHKVYACEVTHQGLSSPVTKSFNRGEC | 2.8 nM | 0.00041 s⁻¹ | 150000 M⁻¹ s⁻¹ |

More lines, in order of falling Kd, values ahead:

| Kd | koff | kon | Binder |
| --- | --- | --- | --- |
| 3.8 nM | 0.0005 s⁻¹ | 130000 M⁻¹ s⁻¹ | anti-IL6R antibody with H chain constant region TH2 (Q175K) and L chain constant region TL17 (T180E, S131E, Q160E) (antibody, human IgG1, kappa, IgG1/kappa; also called TH2/TL17) heavy: QVQLQESGPGLVRPSQTLSLTCTVSGYSITSDHAWSWVRQPPGRGLEWIGYISYSGITTYNPSLKSRVTMLRDTSKNQFSLRLSSVTAADTAVYYCARSLARTTAMDYWGQGSLVTVSS[human IgG1 constant region not shown] light: DIQMTQSPSSLSASVGDRVTITCRASQDISSYLNWYQQKPGKAPKLLIYYTSRLHSGVPSRFSGSGSGTDFTFTISSLQPEDIATYYCQQGNTLPYTFGQGTKVEIKRTVAAPSVFIFPPSDEQLKSGTAEVVCLLNNFYPREAKVQWKVDNALQSGNSEESVTEQDSKDSTYSLSSTLELSKADYEKHKVYACEVTHQGLSSPVTKSFNRGEC |
| 2.3 nM | 0.00048 s⁻¹ | 210000 M⁻¹ s⁻¹ | anti-IL6R antibody with H chain constant region TH15 (K147E, Q175E, K213E) and L chain constant region TL19 (T180K, S131K, Q160K, E123K) (antibody, human IgG1, kappa, IgG1/kappa; also called TH15/TL19) heavy: QVQLQESGPGLVRPSQTLSLTCTVSGYSITSDHAWSWVRQPPGRGLEWIGYISYSGITTYNPSLKSRVTMLRDTSKNQFSLRLSSVTAADTAVYYCARSLARTTAMDYWGQGSLVTVSSASTKGPSVFPLAPSSKSTSGGTAALGCLVEDYFPEPVTVSWNSGALTSGVHTFPAVLESSGLYSLSSVVTVPSSSLGTQTYICNVNHKPSNTKVDEKV[human IgG1 Fc not shown] light: DIQMTQSPSSLSASVGDRVTITCRASQDISSYLNWYQQKPGKAPKLLIYYTSRLHSGVPSRFSGSGSGTDFTFTISSLQPEDIATYYCQQGNTLPYTFGQGTKVEIKRTVAAPSVFIFPPSDKQLKSGTAKVVCLLNNFYPREAKVQWKVDNALQSGNSKESVTEQDSKDSTYSLSSTLKLSKADYEKHKVYACEVTHQGLSSPVTKSFNRGEC |
